In the antibiotic and cytotoxicity screens of Wong et al. (2023) one finds growth inhibition call data, which are given here for 40 compounds.

Some of the results follow.

For the assay, the system named is S. aureus RN4220. The assay is described as follows: growth inhibition call (relative growth <= 0.2). The note with it: 50 µM.
With `CNC(=O)Nc1ccc(S(N)(=O)=O)cc1`, the growth inhibition call was “inactive”.

Turning to `COC(=O)C(CC#Cc1ccc2c(c1)[C@]1(C(=O)N2)[C@H](c2ccc(OCCO)cc2)N2[C@H](c3ccccc3)[C@H](c3ccccc3)OC(=O)[C@H]2[C@@H]1C(=O)Nc1nc2ccccc2s1)C(=O)OC`, the growth inhibition call was “inactive”.

For `C[C@H]1CN([C@@H](C)CO)C(=O)CCCn2cc(nn2)CO[C@H]1CN(C)Cc1ccc2c(c1)OCCN2C`, the growth inhibition call was “inactive”.

As for `C[C@@H]1CN([C@@H](C)CO)C(=O)c2cc(NC(=O)Cn3cnnn3)ccc2O[C@H]1CN(C)Cc1ccc2c(c1)OCO2`, the growth inhibition call is “inactive”.

Regarding `COc1ccc(S(=O)(=O)N(C)C[C@@H]2Oc3c(NC(=O)c4cc(C)nn4C)cccc3C(=O)N([C@H](C)CO)C[C@H]2C)cc1`, the growth inhibition call was “inactive”.

As for `C[C@H](CO)N1C[C@H](C)[C@@H](CN(C)S(=O)(=O)c2ccc(Cl)cc2)OCCCC[C@H](C)Oc2ccc(NC(=O)c3ccncc3)cc2C1=O`, the growth inhibition call was “inactive”.

Consider `Cc1cn(CCC#N)c2ccccc12`, for which the growth inhibition call is “inactive”.

As for `Cc1ccc(S(=O)(=O)Nc2ccc3c(c2)C(=O)N([C@@H](C)CO)C[C@@H](C)[C@H](CN(C)C(=O)C2CCCCC2)OCCCC[C@@H](C)O3)cc1`, the growth inhibition call was “inactive”.

On to `COc1ccc(-c2cn3cc(C(=O)NCC(N)=O)nc3c(=O)n2CC2CC2)c(F)c1`, for which the growth inhibition call is “inactive”.

On to `Cc1noc(C)c1S(=O)(=O)N(C)C[C@@H]1Oc2ccc(NC(=O)NC3CCCCC3)cc2CC(=O)N([C@@H](C)CO)C[C@H]1C`, for which the growth inhibition call was “inactive”.

`C[C@@H]1CN([C@H](C)CO)C(=O)c2cc(NC(=O)Nc3ccc(C(F)(F)F)cc3)ccc2O[C@H]1CN(C)Cc1ccncc1`: the growth inhibition call is “inactive”.

Consider `CN1C(=O)c2cc(NC(=O)c3cscn3)ccc2OC[C@@H]2O[C@H](CC(=O)N3CCOCC3)CC[C@H]21`, for which the growth inhibition call was “inactive”.

For the compound `C[C@@H]1CN([C@@H](C)CO)C(=O)c2cccc(NS(=O)(=O)c3ccccc3)c2O[C@H]1CN(C)S(=O)(=O)c1cccs1`, the growth inhibition call was “inactive”.

In the case of `COc1ccc(S(=O)(=O)Nc2ccc3c(c2)C(=O)N([C@H](C)CO)C[C@@H](C)[C@H](CN(C)Cc2ccccc2)OCCCC[C@H](C)O3)cc1`, the growth inhibition call was “inactive”.

For `COc1ccc(NC(=O)N2C[C@@H](O)COC[C@H]3O[C@H](CC(=O)NC4Cc5ccccc5C4)CC[C@@H]32)cc1`, the growth inhibition call was “inactive”.

For the compound `CC(C)CC#Cc1ccc2c(c1)O[C@@H](CN(C)C(=O)NC1CCCC1)[C@H](C)CN([C@@H](C)CO)S2(=O)=O`, the growth inhibition call was “inactive”.

With `C[C@H]1CN([C@@H](C)CO)S(=O)(=O)c2ccc(C#Cc3ccncc3)cc2O[C@@H]1CN(C)S(=O)(=O)c1ccc(F)cc1`, the growth inhibition call was “inactive”.

Take `COc1ccc(S(=O)(=O)N(C)C[C@@H]2Oc3ccc(NS(=O)(=O)c4ccc(C)cc4)cc3C(=O)N([C@H](C)CO)C[C@H]2C)cc1`: the growth inhibition call is “inactive”.

As to `CCCCCCCCCCCCCCCCCCCCCCCCCCCCO`, the growth inhibition call is “inactive”.

Take `NC(=O)c1ccc[n+](CC(=O)c2ccccc2)c1`: the growth inhibition call is “inactive”.

As to `C=CCOC(=O)[C@H]1[C@@H]2C(=O)O[C@@H](c3ccccc3)[C@@H](c3ccccc3)N2[C@@H](c2ccc(OCCOC(=O)[C@H]3C[C@H]4C(=O)N[C@@H](CCCC[N+](C)(C)C)C(=O)N4[C@H]3c3ccc(O)cc3)cc2)[C@]12C(=O)Nc1ccc(I)cc12`, the growth inhibition call is “inactive”.

On to `COc1cccc(-c2ccc3c(c2)O[C@@H](CN(C)C(=O)C2CC2)[C@@H](C)CN([C@H](C)CO)S3(=O)=O)c1`, for which the growth inhibition call was “inactive”.

Consider `COc1ccc(S(=O)(=O)N(C)C[C@@H]2OCCCC[C@H](C)Oc3ccc(NC(=O)C4CCCCC4)cc3C(=O)N([C@H](C)CO)C[C@H]2C)cc1`, for which the growth inhibition call was “inactive”.

`COc1ccc(CNC(=O)C[C@H]2C[C@@H]3c4cc(NS(=O)(=O)c5ccc(F)cc5)ccc4O[C@@H]3[C@H](CO)O2)cc1`: the growth inhibition call was “inactive”.

Take `COc1ccc(CN(C)C[C@H]2Oc3c(NC(=O)Nc4ccc(C(F)(F)F)cc4)cccc3C(=O)N([C@H](C)CO)C[C@@H]2C)cc1`: the growth inhibition call was “inactive”.

With `C[C@@H]1CN([C@@H](C)CO)C(=O)c2cc(C#Cc3cccnc3)cnc2O[C@@H]1CN(C)S(=O)(=O)c1ccccc1F`, the growth inhibition call was “inactive”.

With `CC[C@@H](C)C(=O)O[C@H]1[C@@H]2CC3=C4CC(=O)O[C@@H](c5ccoc5)[C@]4(C)CC[C@@H]3[C@@](C)(C2=O)[C@@H](CC(=O)OC)C1(C)C`, the growth inhibition call is “inactive”.

In the case of `C[C@H]1CCCCO[C@H](CN(C)S(=O)(=O)c2cn(C)cn2)[C@@H](C)CN([C@@H](C)CO)C(=O)c2cc(NC(=O)Nc3ccc(C(F)(F)F)cc3)ccc2O1`, the growth inhibition call is “inactive”.

Consider `C[C@H]1CCCCO[C@H](CN(C)C(=O)Nc2ccc(F)cc2)[C@@H](C)CN([C@@H](C)CO)C(=O)c2cc(NC(=O)C3CCCCC3)ccc2O1`, for which the growth inhibition call was “inactive”.

Turning to `O=C(Nc1ccc(C(F)(F)F)cc1)Nc1ccc2c(c1)[C@@H]1C[C@H](CC(=O)N3CCc4ccccc4C3)O[C@H](CO)[C@@H]1O2`, the growth inhibition call is “inactive”.

`C[C@@H]1CCCCO[C@H](CN(C)C(=O)Nc2ccc(C(F)(F)F)cc2)[C@@H](C)CN([C@@H](C)CO)C(=O)c2cc(NS(=O)(=O)c3ccc(Cl)cc3)ccc2O1`: the growth inhibition call was “inactive”.

`C[C@@H]1CCCCO[C@@H](CN(C)C(=O)CCC(F)(F)F)[C@@H](C)CN([C@H](C)CO)C(=O)c2cc(NC(=O)Nc3ccc(F)cc3)ccc2O1`: the growth inhibition call is “inactive”.

As for `C[C@@H]1CN([C@@H](C)CO)C(=O)c2cc(NC(=O)c3ccncc3)ccc2O[C@@H](C)CCCCO[C@@H]1CN(C)S(C)(=O)=O`, the growth inhibition call was “inactive”.

For `COc1ccccc1-c1cnc2c(c1)C(=O)N([C@@H](C)CO)C[C@H](C)[C@@H](CN(C)C(=O)c1ccncc1)O2`, the growth inhibition call was “inactive”.

As for `CC(C)CC#Cc1ccc2c(c1)O[C@@H](CN(C)C(=O)C1CCOCC1)[C@@H](C)CN([C@@H](C)CO)S2(=O)=O`, the growth inhibition call was “inactive”.

Take `C[C@H](CO)N1C[C@H](C)[C@H](CN(C)S(=O)(=O)c2ccc(C#N)cc2)Oc2ncc(C#Cc3cccc(F)c3)cc2C1=O`: the growth inhibition call is “inactive”.

On to `C[C@H]1CN([C@@H](C)CO)C(=O)c2cc(NS(=O)(=O)c3ccccc3)ccc2O[C@H]1CN(C)Cc1ccc(Cl)c(Cl)c1`, for which the growth inhibition call is “inactive”.

For the compound `C[C@@H]1CN([C@@H](C)CO)C(=O)c2cc(NC(=O)C3CCCCC3)ccc2O[C@@H](C)CCCCO[C@H]1CN(C)C(=O)C1CCCCC1`, the growth inhibition call was “inactive”.

Regarding `COc1ccc(NC(=O)Nc2ccc3c(c2)C(=O)N([C@@H](C)CO)C[C@@H](C)[C@@H](CN(C)Cc2ccc4c(c2)OCO4)OCCCC[C@@H](C)O3)cc1`, the growth inhibition call is “inactive”.

As to `C[C@@H]1CN([C@@H](C)CO)C(=O)Cc2cc(NS(=O)(=O)c3ccccc3)ccc2O[C@H]1CN(C)Cc1ccc(Oc2ccccc2)cc1`, the growth inhibition call is “inactive”.
